Measurements from the antibiotic and cytotoxicity screens of Wong et al. (2023).
This is one part of the list.

Experiments:
[1] = test system: HSkMC (human skeletal muscle cells); assay: cytotoxicity call (relative viability < 0.9); conditions: 10 µM
[2] = test system: S. aureus RN4220; assay: growth inhibition call (relative growth <= 0.2); conditions: 50 µM

## Cc1noc(C)c1NC(=O)Nc1ccc2c(c1)C(=O)N([C@H](C)CO)C[C@H](C)[C@H](CN(C)S(=O)(=O)c1ccccc1)OCCCC[C@H](C)O2
[1]
  cytotoxicity call: inactive
[2]
  growth inhibition call: inactive

## COc1cccc(CN(C)C[C@@H]2OCc3ccccc3-c3c(n(C)c4ccccc34)C(=O)N([C@@H](C)CO)C[C@@H]2C)c1
[1]
  cytotoxicity call: inactive
[2]
  growth inhibition call: inactive

## C[C@@H]1CCCCO[C@H](CN(C)Cc2ccncc2)[C@@H](C)CN([C@H](C)CO)C(=O)c2cc(NC(=O)Nc3ccc4c(c3)OCO4)ccc2O1
[1]
  cytotoxicity call: inactive
[2]
  growth inhibition call: inactive

## Cc1ccc(S(=O)(=O)N(C)C[C@@H]2Oc3cc(C#Cc4ccccc4)ccc3S(=O)(=O)N([C@H](C)CO)C[C@H]2C)cc1
[1]
  cytotoxicity call: inactive
[2]
  growth inhibition call: inactive

## C[C@@H]1CN([C@@H](C)CO)C(=O)c2cc(NC(=O)Nc3ccc(C(F)(F)F)cc3)ccc2O[C@@H](C)CCCCO[C@H]1CN(C)C(=O)c1ccccc1
[1]
  cytotoxicity call: inactive
[2]
  growth inhibition call: inactive

## CC(C)C[C@@H]1NC(=O)[C@@H](C(C)C)NC(=O)[C@@H]2CCCN2C(=O)[C@@H](CC(=O)O)NC(=O)[C@@H](Cc2c[nH]c3ccccc23)NC1=O
[1]
  cytotoxicity call: inactive
[2]
  growth inhibition call: inactive

## c1ccc(-c2nc3ccccc3o2)cc1
[1]
  cytotoxicity call: inactive
[2]
  growth inhibition call: inactive

## C[C@@H]1CN([C@@H](C)CO)S(=O)(=O)c2ccc(-c3cccc(C(=O)N(C)C)c3)cc2O[C@@H]1CN(C)C(=O)Cc1ccccn1
[1]
  cytotoxicity call: inactive
[2]
  growth inhibition call: inactive

## CCOC(=O)[C@@H]1C(Cc2ccccc2)=CN(CCc2ccc(OC)c(OC)c2)C(=O)N1c1ccc(OC)cc1
[1]
  cytotoxicity call: inactive
[2]
  growth inhibition call: inactive

## N[C@@H]1CC[C@@H](CCn2cc(-c3ccccn3)nn2)O[C@H]1CO
[1]
  cytotoxicity call: inactive
[2]
  growth inhibition call: inactive

## Cc1ccc(S(=O)(=O)Nc2ccc3c(c2)C(=O)N([C@H](C)CO)C[C@@H](C)[C@H](CN(C)CC2CCCCC2)OCCCC[C@@H](C)O3)cc1
[1]
  cytotoxicity call: inactive
[2]
  growth inhibition call: inactive

## Cc1cc(Nc2cc(C)on2)nc([C@H]2CCN(C(=O)CN)C2)n1
[1]
  cytotoxicity call: inactive
[2]
  growth inhibition call: inactive

## C[C@@H]1CN([C@H](C)CO)C(=O)c2cc(NC(=O)Cc3cn(C)c4ccccc34)ccc2O[C@H]1CN(C)Cc1ccc(-c2ccccc2)cc1
[1]
  cytotoxicity call: inactive
[2]
  growth inhibition call: inactive

## C[C@H]1CCCCO[C@H](CN(C)C(=O)Nc2ccc(F)cc2)[C@@H](C)CN([C@@H](C)CO)C(=O)c2cc(NS(=O)(=O)c3cccs3)ccc2O1
[1]
  cytotoxicity call: inactive
[2]
  growth inhibition call: inactive

## COc1cccc(C#Cc2ccc3c(c2)O[C@H](CN(C)C(C)=O)[C@@H](C)CN([C@H](C)CO)S3(=O)=O)c1
[1]
  cytotoxicity call: inactive
[2]
  growth inhibition call: inactive

## O=C(OC1Cc2c(O)cc(O)cc2OC1c1ccc(O)c(O)c1)c1cc(O)c(O)c(O)c1 (stereo not drawn)
[1]
  cytotoxicity call: inactive
[2]
  growth inhibition call: inactive

## O=C(O)c1cc2n(n1)CCC2
[1]
  cytotoxicity call: inactive
[2]
  growth inhibition call: inactive

## COc1cccc(S(=O)(=O)Nc2ccc3c(c2)[C@H]2C[C@@H](CC(=O)NCc4ccccc4F)O[C@H](CO)[C@H]2O3)c1
[1]
  cytotoxicity call: inactive
[2]
  growth inhibition call: inactive

## C[C@@H]1CN([C@@H](C)CO)C(=O)c2cccc(NC(=O)c3cnccn3)c2O[C@@H]1CN(C)C(=O)Nc1ccccc1
[1]
  cytotoxicity call: inactive
[2]
  growth inhibition call: inactive

## C[C@@H]1CN([C@H](C)CO)C(=O)c2cc(-c3cccc(C(=O)N(C)C)c3)cnc2O[C@H]1CN(C)S(=O)(=O)c1ccc(F)cc1
[1]
  cytotoxicity call: inactive
[2]
  growth inhibition call: inactive

## C[C@H]1CN([C@@H](C)CO)C(=O)c2cc(NC(=O)Nc3ccc(F)cc3)ccc2O[C@@H]1CN(C)Cc1ccc(Cl)c(Cl)c1
[1]
  cytotoxicity call: inactive
[2]
  growth inhibition call: inactive

## C[C@H]1CN([C@@H](C)CO)C(=O)Cc2cc(NS(=O)(=O)c3ccccc3)ccc2O[C@H]1CN(C)S(=O)(=O)c1cn(C)cn1
[1]
  cytotoxicity call: inactive
[2]
  growth inhibition call: inactive

## C[C@H](CO)N1C[C@H](C)[C@@H](CN(C)C(=O)NC2CCCCC2)OCCCC[C@H](C)Oc2ccc(NC(=O)Nc3ccccc3)cc2C1=O
[1]
  cytotoxicity call: inactive
[2]
  growth inhibition call: inactive

## O=C1OC(c2cc(I)c(O)c(I)c2)(c2cc(I)c(O)c(I)c2)c2ccccc21
[1]
  cytotoxicity call: inactive
[2]
  growth inhibition call: inactive

## Cc1ccc(S(=O)(=O)N(C)C[C@@H]2Oc3ccc(NC(=O)CCCN(C)C)cc3C(=O)N([C@@H](C)CO)C[C@H]2C)cc1
[1]
  cytotoxicity call: inactive
[2]
  growth inhibition call: inactive

## C[C@H]1CN([C@@H](C)CO)S(=O)(=O)c2ccc(Br)cc2O[C@@H]1CN(C)C(=O)Cc1ccccc1
[1]
  cytotoxicity call: inactive
[2]
  growth inhibition call: inactive

## C[C@@]1(c2ccc3c(c2)OCCO3)NC(=O)NC1=O
[1]
  cytotoxicity call: inactive
[2]
  growth inhibition call: inactive

## C1=C(c2ccccc2)CC(c2ccccc2)=NN=C1c1ccccc1
[1]
  cytotoxicity call: inactive
[2]
  growth inhibition call: inactive

## C[C@H](CO)N1C[C@H](C)[C@H](CN(C)Cc2ccc(-c3ccccc3)cc2)Oc2ccc(NC(=O)Cc3cn(C)c4ccccc34)cc2CC1=O
[1]
  cytotoxicity call: inactive
[2]
  growth inhibition call: inactive

## C[C@H]1CN([C@@H](C)CO)C(=O)Cc2cc(NC(=O)Nc3ccc(C(F)(F)F)cc3)ccc2O[C@H]1CN(C)C(=O)Nc1ccc2c(c1)OCO2
[1]
  cytotoxicity call: inactive
[2]
  growth inhibition call: inactive

## C[C@H](CO)N1C[C@H](C)[C@@H](CN(C)Cc2ccc(C(=O)O)cc2)Oc2c(NC(=O)C3CCOCC3)cccc2C1=O
[1]
  cytotoxicity call: inactive
[2]
  growth inhibition call: inactive

## C[C@@H]1CN([C@H](C)CO)C(=O)c2cc(NS(=O)(=O)c3ccc(Cl)cc3)ccc2O[C@@H](C)CCCCO[C@@H]1CN(C)Cc1ccccc1
[1]
  cytotoxicity call: inactive
[2]
  growth inhibition call: inactive

## O=C(CN1CCOCC1)N[C@@H]1CC[C@H](CCNC(=O)Nc2cc(F)ccc2F)O[C@@H]1CO
[1]
  cytotoxicity call: inactive
[2]
  growth inhibition call: inactive

## CO[C@@H]1CN(C)C(=O)c2cc(NS(=O)(=O)CC(F)(F)F)ccc2OC[C@H](C)N(C(=O)c2ccc3c(c2)OCO3)C[C@@H]1C
[1]
  cytotoxicity call: inactive
[2]
  growth inhibition call: inactive

## Cc1ccc(S(=O)(=O)Nc2ccc3c(c2)CC(=O)N([C@@H](C)CO)C[C@@H](C)[C@@H](CN(C)S(=O)(=O)c2cn(C)cn2)O3)cc1
[1]
  cytotoxicity call: inactive
[2]
  growth inhibition call: inactive

## COCC(=O)N(C)C[C@@H]1Oc2cc(C#C[C@@H](C)O)ccc2S(=O)(=O)N([C@H](C)CO)C[C@@H]1C
[1]
  cytotoxicity call: inactive
[2]
  growth inhibition call: inactive

## C[C@@H]1CN([C@H](C)CO)C(=O)c2cc(-c3ccc(C(=O)N(C)C)cc3)cnc2O[C@@H]1CN(C)C(=O)CN(C)C
[1]
  cytotoxicity call: inactive
[2]
  growth inhibition call: inactive

## C[C@@H]1CN([C@@H](C)CO)C(=O)c2cccc(NS(=O)(=O)c3ccccc3)c2O[C@@H]1CN(C)S(=O)(=O)c1ccccc1
[1]
  cytotoxicity call: inactive
[2]
  growth inhibition call: inactive

## C[C@H]1CN([C@@H](C)CO)C(=O)c2cccc(NS(=O)(=O)c3ccc(F)cc3)c2O[C@H]1CN(C)S(=O)(=O)c1ccc(F)cc1
[1]
  cytotoxicity call: inactive
[2]
  growth inhibition call: inactive

## COc1ccc([Si](C)(C)[C@H]2[C@H](CC(=O)N(CCO)Cc3ccccc3)O[C@@]3(C(=O)N(Cc4cccc(N5CCOC5=O)c4)c4ccccc43)[C@@H]2C)cc1
[1]
  cytotoxicity call: inactive
[2]
  growth inhibition call: inactive

## O=S1(=O)N[C@H](c2ccccc2)CO1
[1]
  cytotoxicity call: inactive
[2]
  growth inhibition call: inactive

## C[C@@H]1CN([C@@H](C)CO)C(=O)c2cc(Br)cnc2O[C@H]1CN(C)Cc1ccccc1C(=O)O
[1]
  cytotoxicity call: inactive
[2]
  growth inhibition call: inactive

## COc1ccc(S(=O)(=O)N(C)C[C@@H]2Oc3c(NC(=O)c4cc(C)nn4C)cccc3C(=O)N([C@H](C)CO)C[C@H]2C)cc1
[1]
  cytotoxicity call: inactive
[2]
  growth inhibition call: inactive

## Nc1nc(Nc2ccccc2)nc2c1ncn2[C@@H]1O[C@H](CO)[C@@H](O)[C@H]1O
[1]
  cytotoxicity call: inactive
[2]
  growth inhibition call: inactive

## CNC(=O)C[C@H]1CC[C@H]2[C@@H](COC[C@@H](O)CN2C(=O)c2ccc3c(c2)OCO3)O1
[1]
  cytotoxicity call: inactive
[2]
  growth inhibition call: inactive

## COc1ccc(NC(=O)N(C)C[C@H]2Oc3c(NS(C)(=O)=O)cccc3C(=O)N([C@@H](C)CO)C[C@H]2C)cc1
[1]
  cytotoxicity call: inactive
[2]
  growth inhibition call: inactive

## C[C@H](CO)N1C[C@H](C)[C@@H](CN(C)S(=O)(=O)c2ccc(Cl)cc2)OCCCC[C@H](C)Oc2ccc(NS(=O)(=O)c3ccc(F)cc3)cc2C1=O
[1]
  cytotoxicity call: inactive
[2]
  growth inhibition call: inactive

## N[C@H](CO)COCc1ccccc1
[1]
  cytotoxicity call: inactive
[2]
  growth inhibition call: inactive

## C[C@@H]1CCCCO[C@H](CN(C)C(=O)Nc2cccc3ccccc23)[C@H](C)CN([C@@H](C)CO)C(=O)c2cc(NC(=O)Nc3ccc4c(c3)OCO4)ccc2O1
[1]
  cytotoxicity call: inactive
[2]
  growth inhibition call: inactive

## C=CCOC(=O)[C@@H]1[C@H]2C(=O)O[C@H](c3ccccc3)[C@H](c3ccccc3)N2[C@H](c2ccc(OCCOC(=O)[C@H]3C[C@H]4C(=O)NCC(=O)N4[C@H]3c3cccc(OCCO)c3)cc2)[C@@]12C(=O)Nc1ccc(I)cc12
[1]
  cytotoxicity call: inactive
[2]
  growth inhibition call: inactive

## CN(C)CCCC[C@@H]1NC(=O)[C@H]2C[C@@H](C(=O)NCCCCCNC(=O)CS)[C@@H](c3ccc(O)cc3)N2C1=O
[1]
  cytotoxicity call: inactive
[2]
  growth inhibition call: inactive

## C[C@@H]1CN([C@H](C)CO)C(=O)Cc2cc(NC(=O)Cc3cn(C)c4ccccc34)ccc2O[C@@H]1CN(C)Cc1ccc(C(=O)Nc2ccccc2N)cc1
[1]
  cytotoxicity call: inactive
[2]
  growth inhibition call: inactive

## C[C@H]1CN([C@@H](C)CO)C(=O)c2cc(NC(=O)Cn3cnnn3)ccc2O[C@H]1CN(C)CC1CCCCC1
[1]
  cytotoxicity call: inactive
[2]
  growth inhibition call: inactive

## C[C@@H]1CN([C@H](C)CO)C(=O)Cc2cc(NC(=O)CCC(F)(F)F)ccc2O[C@@H]1CN(C)Cc1ccc(Cl)c(Cl)c1
[1]
  cytotoxicity call: inactive
[2]
  growth inhibition call: inactive

## C[C@@H]1CN([C@@H](C)CO)C(=O)c2cc(NC(=O)Nc3ccc4c(c3)OCO4)ccc2O[C@@H](C)CCCCO[C@@H]1CN(C)S(=O)(=O)c1ccccc1
[1]
  cytotoxicity call: inactive
[2]
  growth inhibition call: inactive

## C#CC1(OC(C)=O)CCC2C3CCC4=CC(=O)CCC4C3CCC21C (stereo not drawn)
[1]
  cytotoxicity call: inactive
[2]
  growth inhibition call: inactive

## COc1ccc(NC(=O)N(C)C[C@H]2Oc3ccc(NC(=O)CCCCCC(=O)Nc4ccccc4N)cc3C(=O)N([C@@H](C)CO)C[C@H]2C)cc1
[1]
  cytotoxicity call: inactive
[2]
  growth inhibition call: inactive

## C[C@H](CO)N1C[C@H](C)[C@H](CN(C)Cc2ccc(-c3ccccc3)cc2)Oc2ccc(NC(=O)C3CC3)cc2C1=O
[1]
  cytotoxicity call: inactive
[2]
  growth inhibition call: inactive

## C[C@H]1CN([C@@H](C)CO)C(=O)Cc2cc(NC(=O)Nc3ccc(F)cc3)ccc2O[C@@H]1CN(C)C(=O)Nc1ccc(C(F)(F)F)cc1
[1]
  cytotoxicity call: inactive
[2]
  growth inhibition call: inactive
